From PubChem BioAssay AID360 (National Center for Advancing Translational Sciences (NCATS), 2006)
In all, about 48,000 compounds went through this assay and about 550 (1.1%) were called active. Not shown: some 4% with an inconclusive outcome. Cut-off read from the data, not from the text of the source: active = potency below about 15 µM; inconclusive = mostly about 16 µM to 33 µM; inactive = weaker than that. Some of the results follow.

Target: Lysosomal acid glucosylceramidase (Homo sapiens) (UniProt P04062)
Assay: Glucocerebrosidase;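 note: the screen sought inhibitors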
Settings: purified enzyme, resorufin glucoside fluorescence (screen aimed at inhibitors), 20 min
Summary of the method: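 Normal human glucocerebrosidase (0.2 nM final) was assayed with resorufin β-D-glucopyranoside (30 uM final) in 50mM citric acid/KH2PO4, 10mM sodium taurocholate, 0.01% tween-20, pH 5.9. Compounds were titrated; fluorescence (Ex 548, Em 600) read after 20 min at RT.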
Potency is the fitted concentration of half-maximal effect.

UniProt P04062, sequence (P04062 whole entry, looked up): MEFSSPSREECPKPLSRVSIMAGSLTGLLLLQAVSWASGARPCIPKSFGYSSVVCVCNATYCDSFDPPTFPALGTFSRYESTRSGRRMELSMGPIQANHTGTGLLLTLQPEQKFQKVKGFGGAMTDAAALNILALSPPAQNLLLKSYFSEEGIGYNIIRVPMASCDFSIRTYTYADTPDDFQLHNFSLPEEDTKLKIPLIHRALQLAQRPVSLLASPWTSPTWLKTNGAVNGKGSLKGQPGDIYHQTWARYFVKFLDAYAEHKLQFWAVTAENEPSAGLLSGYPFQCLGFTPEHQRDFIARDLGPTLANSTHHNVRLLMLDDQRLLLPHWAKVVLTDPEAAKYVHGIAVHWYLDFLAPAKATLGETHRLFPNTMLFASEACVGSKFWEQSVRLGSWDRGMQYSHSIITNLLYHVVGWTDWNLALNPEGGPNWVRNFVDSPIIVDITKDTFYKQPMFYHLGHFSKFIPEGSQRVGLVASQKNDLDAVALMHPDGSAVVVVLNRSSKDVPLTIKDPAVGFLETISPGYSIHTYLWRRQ

Potency, inactive:
CC(=O)N1CCC2(CC1)CC(=O)c1cc(OCC(=O)NCc3ccc(C)cc3)ccc1O2 > 76.9 µM
CCOC(=O)C1CCCN(C(=O)c2cc(=O)c3ccccc3o2)C1 (configuration not stated) > 76.9 µM
O=C(CSc1nnnn1C1CCCCC1)N1CCCC1 > 76.9 µM
COc1ccc2c(c1)c1nnc(SCC(=O)N3CCCCC3C)nc1n2C (configuration not stated) > 76.9 µM
S=c1[nH]ncn1-c1ccccn1 > 76.9 µM
Cn1c(SCC(=O)NCc2ccco2)nc2ccccc2c1=O > 76.9 µM
CC(=O)c1cccc(NC(=O)CN2C(=O)COc3ccc(Cl)cc32)c1 > 76.9 µM
CC(C)(C)C(=O)OCCn1c(=O)c2cc3c(=O)n(CCOC(=O)C(C)(C)C)c(=O)c3cc2c1=O > 76.9 µM
COC(=O)CSc1nnc(CNC(=O)c2cccs2)n1-c1cc(OC)ccc1OC > 76.9 µM
CCSCc1nnc(SCC(=O)Nc2cccc(SC)c2)n1C > 76.9 µM
CCOC(=O)c1c(C)nc2ncccn12 > 76.9 µM
CCN1C(=O)C2C(c3ccccc3F)NC(Cc3ccc(O)cc3)(C(=O)OC)C2C1=O (configuration not stated) > 76.9 µM
COc1ccc(S(=O)(=O)N2CCSC2c2ccccc2)cc1 (configuration not stated) > 76.9 µM
COc1cccc(OC(=O)CSc2nnc(-c3ccccc3Br)o2)c1 > 76.9 µM
C=CCOC(=O)C1=C(C)NC(=O)NC1c1cn(-c2ccccc2)nc1-c1cccs1 (configuration not stated) > 76.9 µM
CCCN1CCN(C(=O)Cn2cccc2C(=O)c2ccccc2)CC1 > 76.9 µM
C=CCOC(=O)C(C#N)c1nc2ccccc2nc1N1CCN(Cc2ccc3c(c2)OCO3)CC1 (configuration not stated)
Cc1cccc(-c2noc(CN(C(=O)CCc3ccccc3)C(C)C)n2)c1 > 76.9 µM
COc1ccc2c(c1OC)C(=O)N1c3cccc(Cl)c3C(=O)OC21 (configuration not stated) > 76.9 µM
Cc1cc(NC(=O)c2ccc(Cl)cc2)no1 > 76.9 µM
Cc1ccc(CNC(=O)CSc2n[nH]c(N)n2)cc1 > 76.9 µM
CCC(=O)Nc1cccc(-c2nc3ccccc3c(=O)o2)c1 > 76.9 µM
O=C(CSc1c[nH]c2ccccc12)N1CCOCC1 > 76.9 µM
Nc1ccc(C(=O)OCCCc2nc3ccccc3[nH]2)cc1 > 76.9 µM
Cc1ccc(CNc2ccc(N3CCOCC3)cc2)s1 > 76.9 µM
COc1ccc(C(=O)O)cc1S(=O)(=O)Nc1cccc(C)c1 > 76.9 µM
O=C1NCCc2c1[nH]c1c(Cl)ccc(Cl)c21 > 76.9 µM
O=C(CCC1CCCC1)Nc1ccc(Br)cn1 > 76.9 µM
COc1cccc(C(=O)N2CCN(C3CCC(c4ccccc4)CC3)CC2)c1 (configuration not stated) > 76.9 µM
C/C(=C1/SC(N2CCCC2)=NC1=O)c1ccc(Br)cc1 > 76.9 µM
COCCn1c(SCC(=O)Nc2sc(C)c(C)c2C#N)nnc1C(C)C > 76.9 µM
O=C(Nc1ccc2nccnc2c1)c1cnccn1 > 76.9 µM
C(=N\c1nccs1)/Nc1nccs1 > 76.9 µM
Cc1ccc(-n2c(SCC(N)=O)nnc2-c2ccccn2)cc1 > 76.9 µM
CSc1nncn1/N=C/c1cc(Cl)ccc1F > 76.9 µM
CC(C)CCNC(=O)C1CCN(C(=O)N(C)C)CC1 > 76.9 µM
COc1ccc(C(CCc2ccc(C)o2)NC(=O)Nc2ccc(OC)cc2OC)cc1 (configuration not stated) > 76.9 µM
CC1(C)Cc2c(c(=S)nc(-c3ccccc3)n2CCOCCO)CO1 > 76.9 µM
COc1ccc(-c2nnc(SCC(=O)OC3CCCCC3)o2)cc1OC > 76.9 µM
Cc1ccc(C(=O)Nc2ccccc2C(=O)NC2CCCCC2)cc1S(=O)(=O)N1CCOCC1 > 76.9 µM
COc1cccc(N(C(=O)c2ccco2)C(C(=O)NC2CCCC2)c2ccc(N(C)C)cc2)c1 (configuration not stated) > 76.9 µM
Cc1[nH]c2ccccc2c(=O)c1CN(C)Cc1ccccc1 > 76.9 µM
CCOc1ccc2nc(NC(=O)CSc3nc4c(c(=O)n(C)c(=O)n4C)n3CC)sc2c1 > 76.9 µM
Cc1nn(CC(O)COc2ccc3c(c2)CCC3)c(C)c1C (configuration not stated) > 76.9 µM
O=c1c(N2CCOCC2)nsn1Cc1ccccc1 > 76.9 µM
c1cn(CC2(Cn3ccnc3)COC2)cn1 > 76.9 µM
Cc1cc(NC(=O)CCC(=O)N(CCC(C)C)CC(=O)NCC2CCCO2)no1 (configuration not stated) > 76.9 µM
CC(C)N1C(=O)CCC1C(=O)NC1CCCC1 (configuration not stated) > 76.9 µM
O=C(CSc1nnc(-c2cnccn2)n1Cc1ccco1)Nc1ccc(Br)cc1 > 76.9 µM
O=C(COc1ccccc1)N1CCN(c2nnc(-c3ccccc3)c3ccccc23)CC1 > 76.9 µM
CCCc1nnc(NC(=O)c2c(O)c3cccc4c3n(c2=O)CC4)s1 > 76.9 µM
CCCCCCc1ccc(OCC(=O)O)cc1OCC(=O)O > 76.9 µM
CC1CCCN(C(=O)COC(=O)c2n[nH]c3ccccc23)C1 (configuration not stated) > 76.9 µM
Cc1ccc(CSC2=Nc3ccccc3C3=NC(CCC(=O)NCc4ccco4)C(=O)N23)cc1 (configuration not stated) > 76.9 µM
CCN(c1cccc(C)c1)S(=O)(=O)c1ccc2c(c1)CCN2C(C)=O > 76.9 µM
CCOC(=O)CCCNS(=O)(=O)c1c(C)ccc2nsnc12 > 76.9 µM
O=C(c1ccccc1)N1CC(COc2ccccc2)OC(c2cccnc2)O1 (configuration not stated) > 76.9 µM
CCOC(=O)C1(N(CC)CC)Sc2cc(C)ccc2NC1=O (configuration not stated) > 76.9 µM
CCN(CC)C(=O)C1CCCN(Cc2ccc(F)c(F)c2)C1 (configuration not stated) > 76.9 µM
Cc1[nH]nc2c1C(c1ccoc1)C(C#N)=C(N)O2 (configuration not stated) > 76.9 µM
COc1nc(-c2ccccc2)ccc1-c1noc(-c2ccc(F)cc2)n1 > 76.9 µM
Cc1cc(C)cc(N(C(=O)C2CCCC2)C2C=CS(=O)(=O)C2)c1 (configuration not stated) > 76.9 µM
COC(=O)CN(Cc1ccco1)S(=O)(=O)c1ccccc1 > 76.9 µM
COc1ccc(CCNC(=O)c2nnn(CC(=O)Nc3ccccc3)c2N)cc1OC > 76.9 µM
c1ccc2sc(SCc3ccc(-c4nnco4)cc3)nc2c1 > 76.9 µM
COc1cc(OC)c(-c2nc3cnccc3n2C)cc1OC > 76.9 µM
CCOC(=O)C1CCCN(C(=O)c2cccs2)C1 (configuration not stated) > 76.9 µM
CCOC(=O)c1cn(-c2ccccc2)nc1-c1ccncc1 > 76.9 µM
CCCN1C2=NS(=O)(=O)CCN2c2ccccc21 > 76.9 µM
CC(C)Cn1cc(C(=O)NCc2cccs2)c2c3ccccc3n(C)c2c1=O > 76.9 µM
O=C(C1CCCN(S(=O)(=O)c2ccc(F)cc2)C1)N(Cc1cccs1)C1CC1 (configuration not stated) > 76.9 µM
COc1ccc2c(c1)CCc1c(C(=O)N3CCOCC3)noc1-2 > 76.9 µM
CCOC(=O)c1cnc(-n2cc(C)cn2)nc1NCc1ccc2c(c1)OCO2 > 76.9 µM
COc1ccccc1C1C(C(=O)NCc2ccccc2)=C(C)Nc2ncnn21 (configuration not stated) > 76.9 µM
CCOC(=O)Cc1csc(NC(=O)COc2ccc(N(C)S(=O)(=O)c3cccs3)cc2)n1 > 76.9 µM
COC(=O)CN(c1ccc(F)cc1)S(=O)(=O)c1ccccc1 > 76.9 µM
CCOC(=O)Nc1cc2c(cc1C(C)=O)OCO2 > 76.9 µM
CCC1CCCCN1CC(=O)Nc1cc(C)nn1-c1nc(C)cc(C)n1 (configuration not stated) > 76.9 µM
CCOc1ccccc1NC(=O)c1ccc(S(=O)(=O)N2CCOCC2)cc1 > 76.9 µM
CCn1c(C)c(C(C)=O)c(N2CCN(C(=O)c3ccco3)CC2)nc1=S > 76.9 µM
COc1ccc(Cn2c(=O)[nH]c3cc(C(=O)NCCCN4CCCC4)ccc3c2=O)cc1 > 76.9 µM
Cc1cccc(N(C)C(=O)c2coc(=O)c3ccccc23)c1 > 76.9 µM
Cc1ccccc1NS(=O)(=O)c1ccc2[nH]cc(C(=O)N(C)Cc3ccco3)c(=O)c2c1 > 76.9 µM
COCCCNC(=O)c1cn(C)c(=O)c2cc(OC)c(OC)cc12 > 76.9 µM
Cc1ccnc(NC(=O)CCC(=O)N(CC(=O)NC2CCCCC2)c2ccc3c(c2)OCO3)c1 > 76.9 µM
CC1CCCCC1NC(=O)CSc1nnc(-c2ccccc2)n1N (configuration not stated) > 76.9 µM
COc1ccc(Oc2nc(C)cc(C)c2C#N)cc1 > 76.9 µM
Cc1nn(CC(=O)Nc2nnc(CC(=O)N3CCCC3)s2)c(=O)c2ccccc12 > 76.9 µM
Cc1cc(OCC(=O)Nc2ccc3c(c2)OCCO3)ccc1Cl > 76.9 µM
CCCn1c(SCC(=O)O)nc2ccccc21 > 76.9 µM
COc1ccc(OCCN2CCN(C3CC(=O)N(CCC(C)C)C3=O)CC2)cc1 (configuration not stated) > 76.9 µM
Cc1ccc(C)c(NC(=O)CS(=O)(=O)c2cn(C)c3ccccc23)c1 > 76.9 µM
